Reference: PubChem BioAssay AID1963576 (National Center for Advancing Translational Sciences (NCATS), 2024)
About 60 (0.1%) of roughly 46,000 compounds were called active. Inconclusive results (about 3%) are left out. Calls follow the shape of the dose curve; as a rule, active = well fitted inhibition curve with a large enough effect; inconclusive = small, poorly fitted or top-dose-only effect; inactive = no such curve, though single readings can be large or run the other way. The list shows a part of the results.

experiment: Primary qHTS assay for Inhibitors of ovarian cancer metastasis using an organotypic tumor microenvironment (TME) model.; also: nearly all actives have a fitted effect of over 65% in size;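 as to activity change, negative = inhibition: plate controls were DMSO wells for no effect and tomatine positive control wells for full effect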; settings: SKOV3ip1-GFP adhesion/invasion on 3D omental model, fluorescence; series mostly up to 45.8 µM; activity change, negative = inhibition: at the top concentration
In short: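 A 3D layer of primary human omental fibroblasts, mesothelial cells, fibronectin and collagen I, grown 48 hr, received SKOV3ip1-GFP cells in serum-free medium plus compounds at 0.36-46 umol/L. After 2 hr RT and 16 hr 37 C, fixed adherent GFP cells were counted; normalized to DMSO and tomatine.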

outcome, inactive:
Brc1ccc(-c2nc(N3CCN(c4ccccc4)CC3)c3ccccc3n2)cc1
COc1ccc2oc(=O)cc(CN3CCN(C(=O)c4ccccc4Br)CC3)c2c1
CCOc1ccc2nc(N3CCN(C(=O)C(C)C)CC3)sc2c1
COC(=O)c1cc(C)nc2c1c(=O)nc(SCc1cccc(C(F)(F)F)c1)n2C1CC1
Cc1c(Cl)cccc1NC(=O)CCn1cnnn1
Cc1ccc(-n2ccnc(NCCc3ccccc3)c2=O)cc1C
COC(=O)c1ccccc1NC(=O)CN(c1ccc(Cl)cc1)S(=O)(=O)c1ccc(OC)cc1
COc1ccc(N2CCN(c3ncnc4onc(C)c34)CC2)cc1
CCOc1ccccc1NC(=O)C1CCN(S(=O)(=O)c2cccc3nonc23)CC1
COCCNC(=O)CCn1c(=O)[nH]c2cc(OC)c(OC)cc2c1=O
CCOc1ccc(NC(=O)c2cc(S(=O)(=O)N3CCC(C)CC3)cn2C)cc1
O=C(Nc1ccc(C(F)(F)F)cc1)C1(c2cccs2)CCOCC1
CCC1CN(C(=O)N2CCC(C(=O)NCc3ccccc3F)CC2)c2ccccc2O1 (configuration not stated)
Cc1ccc(NC(=O)c2c(C)oc3ncnc(N4CCCCC4)c23)c(C)c1
Cc1ccccc1NC(=O)C1CCN(S(=O)(=O)c2cccc3nonc23)CC1
COc1ccc(/C=C/C(=O)Nc2cccc(F)c2)cc1
CCOc1ccc(N(C)S(=O)(=O)c2cc(-c3cnc(C)o3)ccc2OC)cc1
CCN(C(=O)Cn1cnc2c1c(=O)n(C)c(=O)n2C)c1ccccc1C
CC(C)CN(CC(C)C)c1nnc(NC(=O)Nc2cccc(C(F)(F)F)c2)s1
CCc1ccccc1NC(=O)c1cc(S(=O)(=O)N2CCC(C)CC2)cn1C
CCOC(=O)c1cc(-c2ccc(C)cc2)n(CC(=O)Nc2cc(C)ccc2C)c1C
CC1=C(C(=O)Nc2ccc(C)cc2C)C(c2cc(Br)ccc2F)n2ncc(C(=O)Nc3ccc(C)cc3)c2N1 (configuration not stated)
CCN1C(=O)c2ccccc2S(=O)c2ccc(C(=O)N3CCN(c4cccc(Cl)c4)CC3)cc21 (configuration not stated)
CCOc1ccc(NC(=O)Cn2cc(C(=O)c3ccccc3)c(=O)c3cc(OC)ccc32)cc1
CCCCN(c1ccccc1)S(=O)(=O)c1cc2c3c(c1)C(C)C(=O)N3CCC2 (configuration not stated)
O=C(CCc1nnc2n(Cc3ccccc3Cl)c(=O)c3ccccc3n12)Nc1ccccc1
Cc1ccc(COC(=O)c2ccc(-c3nnn(Cc4ccc(C)cc4)n3)cc2)cc1

Activity change, negative = inhibition, inactive:
COc1cc(OC)c(C(=O)CCCN2CCCC2)c(OC)c1 4.66%
CC1CCN(c2nn3c(=O)c(C(=O)NCCc4ccc(Cl)cc4)cnc3s2)CC1 3.67%
O=c1[nH]c2ccc(NS(=O)(=O)c3ccc(F)cc3)cc2s1 -3.08%
COc1ccc(Cl)cc1NC(=O)COC(=O)CC(C)(C)CC1=NS(=O)(=O)c2ccccc2N1 -1.06%
CCN(CC)CCCNC(=O)C(C)n1nc(C)n2c(cc3occc32)c1=O (configuration not stated) 121%
COCCCN1C(=O)c2[nH]nc(-c3ccccc3O)c2C1c1ccc(OC)cc1 (configuration not stated) -37.4%
CC(C)c1ccc(NC(=O)c2cc(S(=O)(=O)NC3CCCCC3)ccc2F)cc1 -16.8%
Cc1cccc(Cn2c(SCc3ccc(C(=O)NCc4cccs4)cc3)nc3cccnc32)c1 -11.6%
O=c1cc2nc(-c3ccccc3F)nc(SCc3ccc(Br)cc3)n2[nH]1 0.637%
CCOC(=O)c1c(C)[nH]c(C)c1S(=O)(=O)N1CCCC(C(=O)Nc2ccc(OC)c(OC)c2)C1 (configuration not stated) 0.925%
COc1ccc(NC(=O)CSc2nnc(-c3nonc3NC(C)=O)n2C)cc1Cl 2.13%
Cc1ccc2[nH]c(CSc3nnc(C)s3)cc(=O)c2c1 1.94%
O=C(C1CCC(CNS(=O)(=O)c2cccs2)CC1)N1CCN(c2ccc(Cl)cc2)CC1 (configuration not stated) -18.3%
COc1ccc(CCNC(=O)Cn2c(=O)nc(-c3ccccc3F)c3cc(Cl)ccc32)cc1OC 11%
Cc1cccc(N2CCN(C(=O)C3CCCN(C(=O)c4cc5sccc5n4C)C3)CC2)c1C (configuration not stated) 7.51%
O=C(Nc1cc(-c2ccc(F)c(F)c2)no1)c1ccccc1F -0.245%
N#CC(c1ccc(Cl)cc1)c1c(Cl)cc(-n2ncc(=O)[nH]c2=O)cc1Cl (configuration not stated) -8.04%
O=c1ccc2ccc(O)c(O)c2o1 18.5%
COc1ccc(NC(=O)C(=O)c2cc(C)n(-c3ccc(C)cc3)c2C)cc1Cl -4.12%
CCOc1ccc(CCNC(=O)Cn2ccc3cc(S(=O)(=O)N4CCCCCC4)ccc32)cc1 -10.4%
CCC1CN(C(=O)C2CCN(S(=O)(=O)c3c(C)noc3/C=C/c3ccc(C)cc3)CC2)c2cc(C)ccc2O1 (configuration not stated) -6.32%
CC1=C(C(=O)Nc2ccc(F)cc2)C(c2ccc(N(C)C)cc2)NC(=O)N1 (configuration not stated) 3.57%
COc1ccc(CNC(=O)Cc2ccc(NC(=O)N3CCCCc4ccccc43)cc2)cc1 0.205%
CCCOC(=O)c1cccc(Nc2nc(C(=O)OCC)nc3ccccc23)c1 -0.319%
CC1CCCN(c2ncnc3c2nnn3C)C1 (configuration not stated) -8.54%
Cc1cc(C)cc(NC(=O)c2cc(S(=O)(=O)N3CCCCC3)c[nH]2)c1 -14.1%
CC(Oc1ccccc1F)C(=O)NCC1(N2CCOCC2)CCCCC1 (configuration not stated) -11.5%
COc1cccc(CNC(=O)Nc2ccc3c(c2)N(C)C(=O)c2ccccc2S3)c1 16.2%
COc1ccc(OC)c(-c2cc(C(=O)NCc3ccc(Cl)cc3)no2)c1 2.21%
Cc1ccc(-c2nn3c(C)nnc3c3ccccc23)cc1S(=O)(=O)NC(C)(C)CO -16.8%
CCc1ccc(NC(=O)c2sc3nc(C)cc(C)c3c2NC(=O)c2ccccc2)cc1 52.5%
CC(C)(C)C(=O)OCOP(=O)(COCCn1cnc2c(N)ncnc21)OCOC(=O)C(C)(C)C -18.6%
Cc1ccc(C)c(NC(=O)Cn2cc(S(=O)(=O)c3ccc(F)cc3)c(=O)c3cc(F)ccc32)c1 25.2%
CN(C)S(=O)(=O)c1ccc2c(c1)N(CC(=O)N1CCC(C(N)=O)CC1)CCS2 136%
O=C(Nc1nnc2n1CCS2)c1cc(C(F)(F)F)cc(C(F)(F)F)c1 5.62%
COc1ccc(C(=O)N2CCN(CCc3ccccn3)CC2)cc1 0.0498%
Cc1ccc(NC(=O)C2CCCN(c3nc4ccccc4s3)C2)c(C)c1 (configuration not stated) 1.12%
COc1ccc(-c2cc(C(F)(F)F)n3nc(C(=O)Nc4ccc(Cl)cc4C(F)(F)F)cc3n2)cc1OC -4.07%
Cc1cccc(C)c1NC(=O)Cn1c(=O)n(CCC(=O)NCc2ccc3c(c2)OCO3)c(=O)c2sccc21 5.94%
Cn1c(=O)c2c(-c3ccccc3)n3c(c2n(C)c1=O)C(c1cccc([N+](=O)[O-])c1)Nc1ccccc1-3 (configuration not stated) -3.76%
Cc1ccc(NC(=O)c2cnc(SCC(=O)N3CCCc4ccccc43)n(C)c2=O)cc1C -11.6%
Cc1oc(-c2ccccc2)nc1Cn1c(=O)cc(-c2ccccc2)c2c(C)nn(C)c21 3.55%
COc1ccc(-c2cc(C(=O)Nc3c(C(=O)c4ccc(C)c(F)c4)oc4ccccc34)no2)cc1 17.8%
CCOc1ccc(CNC(=O)c2ccc(Sc3ccc(C)cc3)c(N)c2)cc1OC -13.9%
CCn1c(=O)c2cc(C(=O)NCCc3ccc(OC)c(OC)c3)sc2c2ccccc21 -15.7%
Cc1ccc2nc(Cl)c3cc(C(=O)N4CCCC(C)C4)sc3c2c1 (configuration not stated) 14.5%
COc1ccc(OCC(=O)Nc2ccc3c(c2)N(C)C(=O)c2ccccc2S3)cc1 -0.319%
CC(=O)Nc1sc2c(c1-c1nc3ccccc3s1)CNC2 -11.3%
COc1ccc(-c2cc(C(F)(F)F)n3nc(C(=O)Nc4cccc(Cl)c4Cl)cc3n2)cc1OC -2.19%
COC(=O)CSc1nnc(-c2cccc(O)c2)o1 -1.74%
COC(=O)Cn1c(SCCOc2ccccc2Cl)nc2ccccc21 6.26%
O=C(CCS(=O)(=O)c1nc(-c2ccc3c(c2)OCO3)cc(C(F)(F)F)n1)Nc1ccccc1C(F)(F)F -4.66%
O=C(Cc1ccc(F)cc1)NCCc1csc2nc(-c3ccc(Cl)cc3)nn12 -27.8%
COC(=O)c1cc(NC(=O)CCc2c(C)nc3nc(C)nn3c2C)cc(C(=O)OC)c1 -22.8%
Cc1cccc(CC(=O)Nc2cccc(-c3cn4cccnc4n3)c2)c1 -0.792%
Cc1ccc2c(c1)-c1onc(C(=O)N(C)c3ccc(F)cc3)c1CO2 -1.6%
CCOC(=O)Cn1c(=O)cc(C)c2c(C)nn(-c3cccc(F)c3)c21 9.05%
Cc1ccc(-n2ncc3c(=O)n(Cc4cccc(C(F)(F)F)c4)cnc32)cc1C 2.65%
CC1=C(C(=O)Nc2ccccc2C)C(c2ccc[nH]2)n2ncnc2N1 (configuration not stated) -21.6%
CCCCn1c(SCc2ccccc2C#N)nc2c(sc3ccccc32)c1=O 8.09%
COc1ccc(CNC(=O)C2CCN(S(=O)(=O)Cc3ccccc3)CC2)cc1 -12.4%
Cc1cccc(NC(=O)c2cc3c(C)nn(-c4ccccc4)c3s2)c1 -4.51%
CCc1ccc(S(=O)(=O)Nc2ccc3oc(C)c(C(=O)OCCOC)c3c2)cc1 -7.51%
COc1ccc(NC(=O)c2ccc(-c3nc(CSc4ccccc4)c(C)o3)cc2)c(OC)c1 -7.75%
CCOC(=O)c1[nH]c(C)c(C(=O)NCc2ccccc2Cl)c1C -21.8%
O=C(NCc1ccc2c(c1)CCN2C(=O)c1ccncc1)c1cccc(F)c1 0.502%
Cc1ccn2c(=O)c(NC(=O)c3cccc([N+](=O)[O-])c3C)c(C)nc2c1 -6.75%
Cc1nn(-c2ccc(N3CCCCC3)nn2)c(C)c1CCC(=O)Nc1cccc(F)c1 -4.97%
O=c1cc(-c2ccccc2)nc(SCc2nc(-c3cccc(C(F)(F)F)c3)no2)[nH]1 -3.34%
CCN(CCCNC(=O)CN1N=C(c2ccc(C)cc2)CCC1=O)c1ccccc1 -20.8%
